According to the supplement of paper PMC4967469:

Columns and labels:
Assay in all cases: Viability of human cancer cell lines after 72 h of drug (GDSC screen)
PI-103 = compound: Oc1cccc(-c2nc(N3CCOCC3)c3oc4ncccc4c3n2)c1 [PI-103]; settings: top dose 10.24 µM
Method: (§1)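 Human cancer cell lines in 384-well plates, medium with 10% serum, drug for 72 h over a 256-fold dose range (nine 2-fold or five 4-fold steps up to the top dose). Adherent lines were fixed and stained with the nucleic acid dye Syto60, suspension lines read with resazurin; signal relative to control wells, capped at 0 and 100%. One two-parameter sigmoid per drug and line, fitted in a mixed model over all curves with the slope shared within a line.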

Tretinoin = compound: CC1=C(/C=C/C(C)=C/C=C/C(C)=C/C(=O)O)C(C)(C)CCC1 [Tretinoin]; settings: top dose 10 µM; top dose inferred
Method: as §1

UNC0638 = compound: COc1cc2c(NC3CCN(C(C)C)CC3)nc(C3CCCCC3)nc2cc1OCCCN1CCCC1 [UNC0638]
Method: as §1

SB-505124 = compound: Cc1cccc(-c2[nH]c(C(C)(C)C)nc2-c2ccc3c(c2)OCO3)n1 [SB-505124]; settings: top dose 10 µM; top dose inferred
Method: as §1

GSK690693 = compound: CCn1c(-c2nonc2N)nc2c(C#CC(C)(C)O)ncc(OC[C@H]3CCCNC3)c21 [GSK690693]; settings: top dose 10.24 µM; top dose inferred
Method: as §1

BX-795 = compound: O=C(NCCCNc1nc(Nc2cccc(NC(=O)N3CCCC3)c2)ncc1I)c1cccs1 [BX-795]; settings: top dose 5 µM; top dose inferred
Method: as §1

[1] = top dose 20 µM, screen: GDSC drug entry 1236, top dose inferred
[2] = top dose 40 µM, screen: GDSC drug entry 245

## Mewo (melanoma, adherent)
PI-103
  AUC: 0.846
  IC50: 9.74 µM
Tretinoin
  AUC: 0.875
  IC50: > 10 µM
UNC0638; [1]
  AUC: 0.816
  IC50: 13.9 µM
UNC0638; [2]
  AUC: 0.749
  IC50: 15.3 µM
SB-505124
  AUC: 0.983
  IC50: > 10 µM
GSK690693
  AUC: 0.982
  IC50: > 10.2 µM

## NCI-H522 (lung adenocarcinoma, adherent)
PI-103
  AUC: 0.939
  IC50: > 10.2 µM
UNC0638; [1]
  AUC: 0.872
  IC50: > 20 µM
UNC0638; [2]
  AUC: 0.877
  IC50: > 40 µM
BX-795
  AUC: 0.884
  IC50: > 5 µM
SB-505124
  AUC: 0.977
  IC50: > 10 µM
GSK690693
  AUC: 0.978
  IC50: > 10.2 µM

## NCI-H1734 (lung adenocarcinoma, adherent)
PI-103
  AUC: 0.765
  IC50: 4.1 µM
Tretinoin
  AUC: 0.985
  IC50: > 10 µM
UNC0638; [2]
  AUC: 0.663
  IC50: 7.48 µM
GSK690693
  AUC: 0.943
  IC50: > 10.2 µM

## NCI-H2023 (lung adenocarcinoma, adherent)
PI-103
  AUC: 0.967
  IC50: > 10.2 µM
UNC0638; [1]
  AUC: 0.757
  IC50: 8.47 µM
UNC0638; [2]
  AUC: 0.838
  IC50: 37 µM
BX-795
  AUC: 0.87
  IC50: > 5 µM
SB-505124
  AUC: 0.979
  IC50: > 10 µM
GSK690693
  AUC: 0.966
  IC50: > 10.2 µM

## NCI-H2030 (lung adenocarcinoma, adherent)
PI-103
  AUC: 0.571
  IC50: 1.03 µM
UNC0638; [1]
  AUC: 0.717
  IC50: 5.68 µM
UNC0638; [2]
  AUC: 0.686
  IC50: 8.99 µM
BX-795
  AUC: 0.924
  IC50: > 5 µM
SB-505124
  AUC: 0.957
  IC50: > 10 µM
GSK690693
  AUC: 0.964
  IC50: > 10.2 µM

## NCI-H2085 (lung adenocarcinoma, adherent)
PI-103
  AUC: 0.21
  IC50: 0.0824 µM
UNC0638; [1]
  AUC: 0.985
  IC50: > 20 µM
UNC0638; [2]
  AUC: 0.784
  IC50: 18.5 µM
BX-795
  AUC: 0.844
  IC50: 4.02 µM
SB-505124
  AUC: 0.985
  IC50: > 10 µM
GSK690693
  AUC: 0.935
  IC50: > 10.2 µM

## NUGC-3 (stomach, adherent)
PI-103
  AUC: 0.77
  IC50: 4.38 µM
UNC0638; [1]
  AUC: 0.79
  IC50: 10.2 µM
UNC0638; [2]
  AUC: 0.773
  IC50: 17.5 µM
BX-795
  AUC: 0.927
  IC50: > 5 µM
SB-505124
  AUC: 0.964
  IC50: > 10 µM
GSK690693
  AUC: 0.961
  IC50: > 10.2 µM

## OAW-28 (ovary, adherent)
PI-103
  AUC: 0.534
  IC50: 0.815 µM
UNC0638; [1]
  AUC: 0.956
  IC50: > 20 µM
UNC0638; [2]
  AUC: 0.762
  IC50: 18 µM
BX-795
  AUC: 0.931
  IC50: > 5 µM
SB-505124
  AUC: 0.98
  IC50: > 10 µM
GSK690693
  AUC: 0.977
  IC50: > 10.2 µM

## OSC-19 (head and neck, adherent)
PI-103
  AUC: 0.805
  IC50: 5.4 µM
UNC0638; [1]
  AUC: 0.984
  IC50: > 20 µM
UNC0638; [2]
  AUC: 0.906
  IC50: > 40 µM
BX-795
  AUC: 0.782
  IC50: 2.19 µM
SB-505124
  AUC: 0.984
  IC50: > 10 µM
GSK690693
  AUC: 0.982
  IC50: > 10.2 µM

## OVCAR-3 (ovary, adherent)
PI-103
  AUC: 0.987
  IC50: > 10.2 µM
UNC0638; [1]
  AUC: 0.811
  IC50: 11.9 µM
UNC0638; [2]
  AUC: 0.987
  IC50: > 40 µM
BX-795
  AUC: 0.9
  IC50: > 5 µM
SB-505124
  AUC: 0.985
  IC50: > 10 µM
GSK690693
  AUC: 0.987
  IC50: > 10.2 µM

## OVCAR-8 (ovary, adherent)
PI-103
  AUC: 0.446
  IC50: 0.462 µM
UNC0638; [1]
  AUC: 0.836
  IC50: 11.4 µM
UNC0638; [2]
  AUC: 0.67
  IC50: 7.04 µM
BX-795
  AUC: 0.893
  IC50: 4.88 µM
SB-505124
  AUC: 0.989
  IC50: > 10 µM
GSK690693
  AUC: 0.982
  IC50: > 10.2 µM

## PANC-10-05 (pancreas, adherent)
PI-103
  AUC: 0.342
  IC50: 0.205 µM
UNC0638; [1]
  AUC: 0.959
  IC50: > 20 µM
UNC0638; [2]
  AUC: 0.728
  IC50: 13.6 µM
BX-795
  AUC: 0.947
  IC50: > 5 µM
SB-505124
  AUC: 0.979
  IC50: > 10 µM
GSK690693
  AUC: 0.823
  IC50: 8.43 µM

## PCI-6A (head and neck, adherent)
PI-103
  AUC: 0.963
  IC50: > 10.2 µM
UNC0638; [1]
  AUC: 0.896
  IC50: > 20 µM
UNC0638; [2]
  AUC: 0.679
  IC50: 7.81 µM
BX-795
  AUC: 0.717
  IC50: 1.27 µM
SB-505124
  AUC: 0.986
  IC50: > 10 µM
GSK690693
  AUC: 0.963
  IC50: > 10.2 µM

## RERF-GC-1B (stomach, adherent)
PI-103
  AUC: 0.71
  IC50: 2.71 µM
UNC0638; [1]
  AUC: 0.852
  IC50: 18.4 µM
UNC0638; [2]
  AUC: 0.707
  IC50: 10.4 µM
BX-795
  AUC: 0.962
  IC50: > 5 µM
SB-505124
  AUC: 0.983
  IC50: > 10 µM
GSK690693
  AUC: 0.923
  IC50: > 10.2 µM

## SK-CO-1 (large intestine, adherent)
PI-103
  AUC: 0.989
  IC50: > 10.2 µM
UNC0638; [1]
  AUC: 0.872
  IC50: 17.2 µM
UNC0638; [2]
  AUC: 0.865
  IC50: 31.9 µM
BX-795
  AUC: 0.914
  IC50: > 5 µM
SB-505124
  AUC: 0.985
  IC50: > 10 µM
GSK690693
  AUC: 0.989
  IC50: > 10.2 µM

## SK-LU-1 (lung adenocarcinoma, adherent)
PI-103
  AUC: 0.668
  IC50: 2.14 µM
UNC0638; [1]
  AUC: 0.827
  IC50: 16.9 µM
UNC0638; [2]
  AUC: 0.707
  IC50: 11.4 µM
BX-795
  AUC: 0.836
  IC50: 4.68 µM
SB-505124
  AUC: 0.978
  IC50: > 10 µM
GSK690693
  AUC: 0.981
  IC50: > 10.2 µM

## SK-MEL-28 (melanoma, adherent)
PI-103
  AUC: 0.729
  IC50: 2.83 µM
UNC0638; [1]
  AUC: 0.632
  IC50: 2.87 µM
UNC0638; [2]
  AUC: 0.776
  IC50: 15.6 µM
BX-795
  AUC: 0.913
  IC50: > 5 µM
SB-505124
  AUC: 0.987
  IC50: > 10 µM
GSK690693
  AUC: 0.988
  IC50: > 10.2 µM

## SU-DHL-10 (B-cell lymphoma, suspension)
PI-103
  AUC: 0.047
  IC50: 0.0418 µM
UNC0638; [1]
  AUC: 0.869
  IC50: 10.1 µM
UNC0638; [2]
  AUC: 0.749
  IC50: 9.98 µM
BX-795
  AUC: 0.853
  IC50: 2.29 µM
SB-505124
  AUC: 0.994
  IC50: > 10 µM
GSK690693
  AUC: 0.121
  IC50: 0.0744 µM

## SW900 (lung squamous cell carcinoma, adherent)
PI-103
  AUC: 0.845
  IC50: 9.23 µM
UNC0638; [1]
  AUC: 0.805
  IC50: 12.1 µM
UNC0638; [2]
  AUC: 0.765
  IC50: 16.9 µM
BX-795
  AUC: 0.899
  IC50: > 5 µM
SB-505124
  AUC: 0.982
  IC50: > 10 µM
GSK690693
  AUC: 0.985
  IC50: > 10.2 µM

## TCCSUP (bladder, adherent)
PI-103
  AUC: 0.933
  IC50: > 10.2 µM
UNC0638; [1]
  AUC: 0.82
  IC50: 13.7 µM
UNC0638; [2]
  AUC: 0.864
  IC50: > 40 µM
BX-795
  AUC: 0.891
  IC50: > 5 µM
SB-505124
  AUC: 0.966
  IC50: > 10 µM
GSK690693
  AUC: 0.984
  IC50: > 10.2 µM

## U031 (kidney, adherent)
PI-103
  AUC: 0.466
  IC50: 0.516 µM
UNC0638; [1]
  AUC: 0.574
  IC50: 2.01 µM
UNC0638; [2]
  AUC: 0.752
  IC50: 13.7 µM
BX-795
  AUC: 0.935
  IC50: > 5 µM
SB-505124
  AUC: 0.983
  IC50: > 10 µM
GSK690693
  AUC: 0.95
  IC50: > 10.2 µM

## VM-CUB-1 (bladder, adherent)
PI-103
  AUC: 0.973
  IC50: > 10.2 µM
UNC0638; [1]
  AUC: 0.975
  IC50: > 20 µM
UNC0638; [2]
  AUC: 0.974
  IC50: > 40 µM
BX-795
  AUC: 0.796
  IC50: 2.26 µM
SB-505124
  AUC: 0.987
  IC50: > 10 µM
GSK690693
  AUC: 0.987
  IC50: > 10.2 µM

## VMRC-RCW (kidney, adherent)
PI-103
  AUC: 0.806
  IC50: 4.76 µM
Tretinoin
  AUC: 0.95
  IC50: > 10 µM
UNC0638; [2]
  AUC: 0.953
  IC50: > 40 µM
GSK690693
  AUC: 0.986
  IC50: > 10.2 µM

IC50 is the fitted dose that halves viability relative to control wells, and lower means more sensitive; fits outside the tested doses are given as limits. The AUC spans the tested range (256-fold, ending at the top dose) of the same fit; it is 1 without any effect and falls as sensitivity rises. For some of these results: Any top dose called inferred is not printed in the source and was worked back from the curve model. For some of these results: An entry number marks a drug with two screens in the source, which often give different values.
